The source of these data is patent publication US20020086278A1, “CHROMOGENIC MEDIA CONTAINING BLOOD OR HEMIN” (priority 1999, published 2002).

The experiment relates to E. coli (non-O157) (esco). The class given is cell-based. Further details: key: + = color detected; v = color varied slightly with strain; 0 = no color detected; < = decreased growth vs. control.

Where a name gives a salt, the structure may show the parent alone.

`O=P(O)(O)Oc1c[nH]c2cc(Cl)c(Br)cc12` [Mag-Phos, 5-Br-6-Cl-3-indolyl-phosphate, p-touidine salt]: the “Colony Color (Summary)” value is reported as “v”.
